From PubChem BioAssay (NCI) come the findings set out here.

This assay relates to NCI-H322M lung. In words: growth of human tumour cells (NCI), 48 h.

Where “and” joins values, the source holds several entries; their conditions need not be identical. Equal entries are not always repeated.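 Five concentrations, 48 hours, 96-well plates. At the GI50, growth is halved. The concentration for full growth arrest is given as TGI.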 Bounds are passed on as bounds.

As for `Cc1ccc(NC(c2ccccc2)c2ccc3cccnc3c2O)cc1` (stereo not drawn), the TGI was found to be 29.9 µM.
For `C=C1C(=O)O[C@@H]2C[C@@H]1CC[C@]1(C)O[C@H]1CC[C@@]1(C)O[C@@H]1CC[C@@]2(C)O`, the GI50 was more than 100 µM and the TGI was more than 100 µM.
`CCOC(=O)c1nc2cc(N3CCOCC3)c(F)cc2[nH]c1=O`: the TGI was more than 100 µM.
Same read-out and setting: the figure for `O=C1OC(c2ccco2)=N/C1=C\c1ccc(Cl)c(Cl)c1` is more than 100 µM.
Still for that read-out and setting: the figure for `O=C(O)c1ccc(NC(=O)C2C(=O)C(=O)N(c3ccc(C(=O)O)cc3)C2=O)cc1` (stereo not drawn) is more than 100 µM; for `CSC1=N/C(=C\c2ccc(C)cc2)C(=O)N1CN1CCOCC1` it is more than 100 µM; for `CC(C)=CCC[C@]1(C)CC[C@]2(C)C3CCC(=C(C)C)[C@@H](CCCO)[C@]3(C)CC[C@@]2(C)C1` (stereo partly drawn) it is more than 100 µM.
`CC(C)(C)[Si](C)(C)OCC1CCC(n2cnc3c(NC(=O)c4ccccc4)ncnc32)O1` (stereo not drawn) showed a TGI of 36.8 µM.
The same measure, in the same setting: the figure for `C[Si](C)(C)C#CCO[Si](C)(C)C` is more than 100 µM.
Still for that read-out and setting: the figure for `CC(C)(C)NNC(=O)/C(=C/c1ccc(Oc2ccc(Cl)c(Cl)c2)cc1)NC(=O)c1ccccc1` is more than 100 µM; for `CSC(SC)=C1CC(=O)Nc2ccccc2C1=O` it is more than 100 µM.
As to `Cn1ccnc1C(=O)/C=C/c1ccc(CC(=O)Nc2ccc(Cl)cc2)cc1`, the GI50 was 3.99 µM and the TGI is more than 25 µM.
As to `CC(C)C[C@H](NC(=O)[C@H](Cc1ccccc1)n1ccc(N2CCCCC2)cc1=O)B(O)O`, the GI50 was more than 100 µM and the TGI was more than 100 µM.
Take `CC/C=C\C[C@H](O)C/C=C1/C(=O)C=C[C@@H]1C/C=C\CCCC(=O)NC(C)C`: the GI50 was 2.81 µM and the TGI was found to be 12.2 µM.
In turn, `Clc1ccc(N=C/C=C/Nc2ccc(Cl)cn2)nc1` came in with a TGI of 30.4 µM.
The same measure, in the same setting: the figure for `CCN(CC)CCCN(c1cc(OC)cc2nccnc12)S(=O)(=O)c1ccc(C)cc1` is more than 100 µM.
Take `COc1cc(NS(C)(=O)=O)ccc1NCc1cnc2ccc3[nH]c(C)ccc3c12`: the TGI was more than 100 µM.
Consider `O=C1c2ccccc2-c2c1c1ccccc1c(=O)n2CCCNCCCn1c2c(c3ccccc3c1=O)C(=O)c1ccccc1-2`, for which the GI50 was 7.63 µM and the TGI was found to be 16.9 µM.
The compound `CC(=O)N=C(N=Nc1c(O)[nH]c2ccc(C)cc12)NC(C)=O` registered a TGI of more than 100 µM.
In turn, `CCOC(=O)C1(C(=O)OCC)C[C@]23OCCC(=O)[C@H]2[C@H]2C(=O)OC(C)(C)O[C@]23C1` showed a TGI of more than 100 µM.
Take `Cc1ccccc1NC(=O)NC(Oc1ccccc1)(C(F)(F)F)C(F)(F)F`: the TGI is more than 100 µM.
On to `O=S(=O)([O-])[O-].[OH3+].[OH3+].[OH3+].[Ru+2].c1ccccc1`, for which the GI50 is more than 100 µM and the TGI is more than 100 µM.
Compound `S=CN1CCCCC1` returned a TGI of more than 100 µM.
Consider `COc1nc2c(OC)cccc2c(OC)c1C=O`, for which the TGI is more than 100 µM.
Regarding `C=C1C(=O)O[C@H]2[C@H]1CC/C(COC(=O)C(=O)c1c[nH]c3ccccc13)=C\CC[C@@]1(C)O[C@@H]21`, the GI50 is 14.3 µM and the TGI came to 28.4 µM.
For `CC(=O)ON(OC(C)=O)c1ccc(C)cc1`, the TGI is more than 100 µM.
As to `COc1ccc(C(=O)Cn2c(C(=O)c3ccc(Cl)cc3)nc3ccccc32)cc1`, the GI50 is more than 60.9 µM and the TGI was more than 100 µM.
The compound `C=CC1(C)CCC(C(C)C(=O)C(C=C(C)C)OC(C)=O)C12C(=O)Oc1ccccc1C2=O` (stereo not drawn) had a TGI of more than 100 µM.
Turning to `CNc1ccccc1C(=O)N/N=C/C=C/c1ccccc1`, the GI50 is 9.19 µM and the TGI was more than 100 µM.
`CC(Cn1c2c3ccccc3ccc2c2oc(=O)c3ccccc3c21)N(C)C` (stereo not drawn) gave a TGI of more than 100 µM.
For `CC(C)(C)[OH+][O-].[O-]c1ccc(Cl)cc1C=Nc1ccc(Cl)cc1[O-].[O]=[V]`, the GI50 is 0.978 µM and the TGI worked out at 18.2 µM.
`Cc1ccc(S(=O)(=O)N/N=C(\CCN2CCCC2)CC(c2ccccc2)c2c(O)c3ccccc3oc2=O)cc1` (stereo not drawn) displayed a TGI of more than 100 µM.
In the case of `O=C(Nc1ccc(S(=O)(=O)Nc2nccs2)cc1)c1cccnc1Nc1cccc(Cl)c1`, the GI50 is 9.29 µM and the TGI worked out at 38.9 µM.
Regarding `CCCCCC(CN1CCOCC1)C(=O)/C=C/c1ccccc1` (stereo not drawn), the TGI is 14.7 µM.
Regarding `c1ccc(COc2ccc(CC3SCCCS3)cc2)cc1`, the TGI is more than 100 µM.
Same read-out and setting: the figure for `COc1ccc2c(c1)C(N)CC2=O` (stereo not drawn) is more than 100 µM; for `C=C(O)c1ccccc1C#Cc1ccccc1C(=O)OC` it is more than 10 µM; for `Cc1c(N2C(=O)/C(=C/C=C/c3ccccc3)N=C2c2ccccc2)c(=O)n(-c2ccccc2)n1C` it is more than 100 µM.
Still for that read-out and setting: the figure for `CSc1ccc2c(cc1=O)[C@@H](NC(C)=O)CCc1cc(O)c(O)c(O)c1-2` is more than 100 µM.
With `COc1ccc(-c2ccc(C3CC(c4ccc(O)cc4)=NN3)o2)c([N+](=O)[O-])c1` (stereo not drawn), the GI50 was 31.8 µM and the TGI is more than 100 µM.
The compound `CCOC(=O)CN1CCNCCN(CC(=O)OCC)CCNCC1` yielded a TGI of more than 100 µM.
As for `O=C(/C=C/c1ccco1)c1ccc(Nc2nc(Nc3ccc(F)cc3)nc(Nc3ccc(Cl)cc3)n2)cc1`, the GI50 is 1.46 µM and the TGI is more than 35.1 µM.
With `S=c1ssc2c3ssc(=S)c3n(Cc3ccccc3)c12`, the TGI was more than 100 µM.
On the same count and under the same terms, the figure for `CNC(=S)/C(=N\Nc1nc[nH]c1C(N)=O)C(N)=S` is more than 61.6 µM; for `Cc1cc2nc3n[nH]c(N)c3nc2cc1C` it is more than 100 µM.
Still for that read-out and setting: the figure for `CCCCCCCCCCCCCS(=O)(=O)O` is more than 100 µM; for `CN1C2CCC1CC(OC(c1ccccc1)c1ccccc1)C2` (stereo not drawn) it is 66.9 µM.
As to `Oc1ccc(C(c2ccccc2)(c2ccccc2)c2ccccc2)cc1`, the GI50 is 19 µM and the TGI worked out at 35.5 µM.
`NCc1ccc(-c2ccc(-c3ccc(-c4ccc(CN)s4)s3)s2)s1` displayed a TGI of more than 100 µM.
On to `OC(c1cc2cc(Br)ccc2c2cc(Br)ccc12)C1CCCCN1` (stereo not drawn), for which the GI50 is 1.95 µM and the TGI was 3.69 µM.
The corresponding values for `CCn1c(=O)c(-c2ccn[nH]2)cc2c(C)nc(N)nc21` are 1.38 µM and 14.6 µM.
`O=C1C=CC(=O)c2c1ccc1c3ccccc3n(-c3ccccn3)c21`: the TGI is more than 100 µM.
On the same count and under the same terms, the figure for `CC1=CC=NN2C(=O)[C@H](C)C2C1` (stereo partly drawn) is more than 100 µM.
Compound `CCOC(=N)CC(=O)Nc1ccc(Cl)cc1` returned a TGI of more than 100 µM.
The compound `c1ccc(N=C2c3ccccc3CN2c2ccccc2)cc1` yielded a TGI of more than 100 µM.
Same read-out and setting: the figure for `COc1ccc2[nH]cc(CCNC(C)=O)c2c1` is more than 100 µM.
For `Oc1c(CN2CCC(N3CCOCC3)CC2)cc(Cc2cc(CN3CCC(N4CCOCC4)CC3)c(O)c3ncccc23)c2cccnc12`, the GI50 is 0.229 µM and the TGI amounted to 53.7 µM.
For `Cc1ccc(Nc2nc(NCCO)c3ccccc3n2)cc1C` the same measures were 11.8 µM and 25.4 µM.
In turn, `CSC(=S)c1ccc(C(=S)SC)cc1` registered a TGI of more than 100 µM.
Turning to `CC(C)C[C@@H](NC(=O)[C@@H](Cc1ccccc1)NC(=O)c1cnccn1)B1O[C@H]2[C@H](O)[C@@H](C(=O)NCCCC[C@@H]3NC(=O)[C@@H](Cc4ccccc4)NC(=O)[C@H](CC(=O)O)NC(=O)CNC(=O)[C@H](CCCN=C(N)N)NC3=O)O[C@@H](CN)[C@H]2O1`, the GI50 was 0.0522 µM and 0.0379 µM; the TGI was 0.972 µM.
Compound `O=C(Cc1nc2ccccc2s1)C(=O)Nc1ccc(Cl)cc1` had a TGI of more than 100 µM.
On the same count and under the same terms, the figure for `COC(=O)c1c[nH]cc1CCc1c[nH]cc1C(=O)OC` is more than 100 µM; for `CN(C)c1nc(N(C)C)nc(N(C)C)n1` it is more than 150 µM.
Still for that read-out and setting: the figure for `c1ccc2c(c1)ccc1nc(-c3ccc4c(c3)OCO4)c3c(c12)CCCC3` is more than 100 µM.
On to `CN(C)/[N+]([O-])=N/Oc1cc(Nc2cccc(C(=O)O)c2)c([N+](=O)[O-])cc1[N+](=O)[O-]`, for which the GI50 was 19.7 µM and the TGI turned out to be 70.2 µM.
Consider `C/C(=N\N=C(N)N)C(CN(CC(C)C)CC(C)C)C(=O)Nc1ccc(C)cc1C` (stereo not drawn), for which the TGI is more than 100 µM.
Still for that read-out and setting: the figure for `CNc1ncnc(Sc2nc(N)nc3nc[nH]c23)c1[N+](=O)[O-]` is more than 100 µM.
On the same count and under the same terms, the figure for `Cn1c(=O)oc2cc(C(=O)CSC(=S)N3CCCCCC3)ccc21` is more than 100 µM.
In the case of `N#CC1=C(N)Oc2cc3c(cc2C1c1cccs1)OCO3` (stereo not drawn), the GI50 is 6.32 µM and the TGI was more than 100 µM.
With `O=C(Nc1ccc(Cl)c(C(F)(F)F)c1)C(=O)C(C(=O)/C=C/c1ccccc1)C1OC(=O)c2ccccc21` (stereo not drawn), the TGI was more than 100 µM.
On the same count and under the same terms, the figure for `CCN(CC)c1ccc(/C=C(\C#N)c2nc(N)nc(N3N=C(C)CC3(C)C)n2)cc1` is more than 61.3 µM.
As for `Nc1c(C(=O)Nc2ccccc2)sc2nc3c(cc12)CCCCCC3`, the GI50 was 2.31 µM and the TGI was 24.9 µM.
For `CN(N=O)C(=O)Nc1c[nH]c(=O)[nH]c1=O`, the TGI was more than 100 µM.
As for `CCCc1c2c([nH]c(=O)c1C)C(=O)c1[nH]c(=O)c(C)c(CCC)c1C2=O`, the TGI was 52.7 µM.
`Oc1ccc2ccccc2c1C=NCCCN=Cc1c(O)ccc2ccccc12`: the GI50 is 22.2 µM and the TGI came to 81.6 µM.
Compound `COc1ccc(OC)c(C2CCc3nc4nc(N)nc(N)c4cc3C2)c1` (stereo not drawn) displayed a TGI of 7.11 µM.
Same read-out and setting: the figure for `NC(=O)NC(=O)c1cnccn1` is more than 100 µM.
In the case of `CCC1=C(C)/C(=C/c2[nH]c(C)c(C(=O)CCCCC(=O)OC)c2C)N=C1c1ccc[nH]1`, the GI50 is 56.5 µM and the TGI is more than 100 µM.
Compound `CC/C(=N\NC(=O)c1cccnc1)c1ccc2c(c1)OCCO2` came in with a TGI of more than 100 µM.
For `CC[C@@H]1C[C@@H]2CN3CCc4c([nH]c5ccc(OC)cc45)C(COC(=O)c4ccc(OC)c(OC)c4)(C2)C13`, the TGI was more than 100 µM.
`CCC/C(=N\NC(=S)N1CCN(c2ccccn2)CC1)c1ccccn1`: the GI50 was 0.0326 µM; the TGI is 1.25 µM and 1.65 µM.
As for `Cc1cc2c(c3c1c1ccccc1n3C)C(=O)C=CC2=O`, the TGI was 66.4 µM.
As for `O=C(Nc1ccc(-c2nc3cc4ccccc4cc3[nH]2)cc1)c1cccc(Br)c1`, the GI50 is 32.2 µM and the TGI was more than 100 µM.
For the compound `CN(C)c1ccc(-c2cc(=O)c3ccccc3[nH]2)cc1`, the TGI is more than 100 µM.
For the compound `O=[N+]([O-])c1ccc(N2CCN(Cc3ccccc3)CC2)c2c1no[n+]2[O-]`, the GI50 is 3.37 µM and the TGI amounted to 8.92 µM.
`C/C(=N\NC(=S)N1CCCCCC1)c1nccnc1C` displayed a TGI of 7.63 µM.
